Test results as given in patent EP4703382A1 (Kanglitai Biomedical (Qingdao) Co., Ltd., dated 2026).

Columns and labels:
[1] = molecular target: T1, human PD-L1 expressed on Raji cells (human, UniProt Q9NZQ7); assay: flow cytometry on Raji cells expressing human PD-L1
T1 construct: whole, on cells; also called Raji-PDL1; PDL1 protein expressed on Raji cells

[2] = molecular target: T2, recombinant protein PD-L1-His (human, UniProt Q9NZQ7 fragment); assay: ELISA, human PDL1-his coated 200 ng/well
T2 construct: also called PD-L1-his fusion protein; human PDL1-his protein

[3] = molecular target: T2, recombinant protein PD-L1-His; assay: SPR (Biacore), single concentration 1.5 µg/mL, PDL1-His captured on CM5 chip
T2 sequence (Q9NZQ7 19-238 limits assumed): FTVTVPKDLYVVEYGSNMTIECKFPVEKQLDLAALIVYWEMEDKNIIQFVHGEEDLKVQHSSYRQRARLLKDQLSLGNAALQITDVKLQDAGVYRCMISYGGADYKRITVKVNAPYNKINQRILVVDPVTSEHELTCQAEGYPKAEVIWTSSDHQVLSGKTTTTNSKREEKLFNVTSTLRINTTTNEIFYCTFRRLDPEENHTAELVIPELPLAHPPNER

[4] = molecular target: T3, Cynomolgus PDL1-His protein (Cynomolgus, UniProt G7PSE7 19-238); assay: ELISA, Cynomolgus PDL1-His coated 100 ng/well, anti-human IgG HRP
T3 construct: also called PD-L1 (Cynomolgus) protein; Cynomolgus PDL1 protein
T3 sequence (G7PSE7 entry or part of it limits assumed, form in doubt): as the sequence (Q9NZQ7 19-238 limits assumed) above, with A33T, A34S, S62N, R68Q, Q82R, F173L, T185A, T192I, H215L counted along it

Binder | EC50 [1] [µg/mL] | EC50 [2] [µg/mL] | Binding value (60s)RU [3] [RU] | Dissociation percentage% [3] [%] | Dissociation value (120s)RU [3] [RU] | Parameter for evaluating binding activity [3] | EC50 [4] [µg/mL]
Fc-containing KN035 (Fc fusion, positive control anti-PD-L1 single-domain antibody Fc fusion; also called KN035-Fc) QVQLVESGGGLVQPGGSLRLSCAASGKMSSRRCMAWFRQAPGKERERVAKLLTTSGSTYLADSVKGRFTISRDNSKNTVYLQMNSLRAEDTAVYYCAADSFEDPTCTLVTSSGAFQYWGQGTLVTVSS[skipping human IgG1 Fc with C220S D265A P331G (EU numbers)] | 0.139 | 0.0419 | – | – | – | – | –
NbPDL1-1-Fc fusion protein (Fc fusion, VHH gene cloned into pcDNA3.1(+) harboring human Fc, expressed in 293-F) QVQLQESGGGLVQPGGSLTLSCAASGFTVSNSAVSWARQAPGKGLEWVSLIDSNRNTVYAQSVRGRFTISRDNVKNTVYLQMNSLKPEDTAVYYCAKGIWGSTLTGQGTQVTVSS[skipping human IgG1 Fc] | 0.204 | 0.0124 | 83.1 | 10.1 | -8.4 | 8.2 | 0.0163

Results, then the binder that gave them:

EC50 [1] [µg/mL] | EC50 [2] [µg/mL] | Binding value (60s)RU [3] [RU] | Dissociation percentage% [3] [%] | Dissociation value (120s)RU [3] [RU] | Parameter for evaluating binding activity [3] | EC50 [4] [µg/mL] | Binder
– | 0.0121 | 112 | 46.1 | -51.8 | 2.4 | 5.1 | NbPDL1-13-Fc fusion protein (Fc fusion, VHH gene cloned into pcDNA3.1(+) harboring human Fc) QVQLQESGGGLVQPGGSLRLSCAASGFTFSTSFVSWVRQAPGKGLEWVSRISPGGASTSYADSVKGRFTISRDNAENTLYLQMNSLKPEDTALYYCAREIYSGRFSGFDYWGQGTQVTVSS[skipping human IgG1 Fc]
– | – | – | – | – | – | 31.9 | NbPDL1-14-Fc (Fc fusion) QVQLQESGGGLVQPGGSLRLSCAASGIISDINMVAWYRQAPGKQRELVAKIFRGGSTYYTDFVKGRFTISRENAKNTVYLQMNSLKPDDTAVYYCNARIQIRADRDYSDYWGQGTQVTVSS[skipping human IgG1 Fc]
0.197 | 0.0111 | 106 | 8.3 | -8.8 | 12.7 | 0.00966 | NbPDL1-3-Fc fusion protein (Fc fusion, VHH gene cloned into pcDNA3.1(+) harboring human Fc) QVQLQESGGGLVQPGGSLRLSCAGSGSIFRITPVAWYRQAPEKQRELVAVITDNGSTDYGDFVKGRFTISRDNAKNTVYLQMNSLKPEDTAVYYCNSRARPVRWTWGQGTQVTVSS[skipping human IgG1 Fc]
